# According to PubChem BioAssay AID662 (National Center for Advancing Translational Sciences (NCATS), 2007):
# About 1,800 (2.5%) of roughly 71,000 compounds were called active. Inconclusive means that the source gave no clear call. Such entries were picked first, then a sample of the others. The call rests on the fitted dose curve; in most records, active means well fitted activation curve with a large enough effect in the signal ratio, with a control signal flat (not every such curve was filed as active); inconclusive means small, poorly fitted or top-dose-only effect, or effect the other way, or a change in a side signal; inactive means flat fitted curve, though single readings scatter; the % refers to the signal ratio. Potencies of inconclusive entries are doubtful fits and often do not repeat.
# Experiment: Cell signaling CRE-BLA (Fsk stim); on activity change, negative = inhibition: % of control where 0% means no effect
# Conditions: CHO CRE-bla reporter (cAMP response element driving beta-lactamase), forskolin EC10, beta-lactamase ratio; activity change, negative = inhibition: at 38.2 µM (top of the series) unless noted
# Source text: NIH Molecular Libraries Screening Centers Network [MLSCN]
# NIH Chemical Genomics Center [NCGC]
# Assay Provider: Marshall W. Nirenberg, U.S. National heart lung & blood institute
# Memories persist for different lengths of time, from seconds or minutes to a lifetime. There are two kinds of memory: short-term memory (STM) and long-term memory (LTM). STM lasts for minutes to hours, which maybe mediated by modifications of molecules involved in synaptic functions. LTM lasts for days or longer, and may be due to the formation of new synapses or restructuring of existing synapses. LTM, but not STM, requires gene transcription and synthesis of proteins. CREB (cyclic-AMP Responsive Element Binding Protein) is one of the candidates plays an important role for enhancement of some types of LTM. CREB, a family of transcription factors, regulates the transcription of genes containing cAMP Responsive Elements (CRE). CRE is a nucleotide sequence often found in the promoter regions of genes that are binding sites for CREB.
# Using a beta-lactamase reporter-gene under control of cAMP responsive element, a cell-based assay [CellSensor(TM) CRE-bla CHO developed by Invitrogen Corp.] was used to measure forskolin-induced signaling. Library compounds were measured for their ability to modulate positively or negatively the action of EC10 NKH 477, a water soluble forskolin, on reporter gene activity. Compounds were screened in a titration series in 1536-well format. Positive and negative modulators were identified based on the AC50 values derived from the screening data.
# NCGC Assay Protocol Summary
# 2000 cells/5uL in Opti-MEM medium containing 0.5% dialyzed FBS, 0.1 mM NEAA, 1 mM sodium pyruvate and 10 mM HEPES was dispensed into 1536-well plates and cells were cultured at 37 degrees Celsius overnight. […] And then the plates were incubated at 37 degrees Celsius for 3 hours. 1 uL of CCF4-dye mixture was added to each well. After incubated at room temperature for 2 hours the plates were measured on an EnVision plate reader at Excitation 405nm, Emission1=460nm and Emission 2=530nm. The %Activity was determined from the ratio of 460nm/530nm.
# Keywords: NIH Roadmap, MLSCN, MLSMR, qHTS, NCGC, CRE, beta-lactamase reporter-gene assay.
# Potency means the concentration at half of the fitted maximal effect; tags describe the fitted curve by direction and shape.
SMILES,"activity change, negative = inhibition",Potency
CCCOc1ccc2[nH]cc(C3=CCNCC3)c2n1,inactive: -2.57%,
O=c1c2ccccc2nc(N2CCCC2)n1-c1ccc(Cl)cc1,inconclusive: 28.8%,
COc1cc(CN2CC3CC(C2)c2cccc(=O)n2C3)cc(OC)c1OC (configuration not stated),inactive: 4.36%,
COc1ccc(Cn2c(N)c(C(=O)NCc3ccco3)c3nc4ccccc4nc32)cc1OC,,"inconclusive: 12.6 µM [rising, partial curve]"
CCOc1cc2[nH]c(=S)n(CCCC(=O)N3CCC4(CC3)OCCO4)c(=O)c2cc1OCC,,"inconclusive: 0.0501 µM [rising, full curve, poor fit]"
Cc1cc(OCC(=O)NC2CCS(=O)(=O)C2)c2c3c(c(=O)oc2c1)CCC3 (configuration not stated),inactive: 2.93%,
C=C1N2CCC(CC2)C1(O)c1ccccc1C (configuration not stated),inactive: -12.2%,
C[C@@H]1CCC/C=C\[C@H]2C[C@H](O)C[C@@H]2[C@H](O)/C=C\C(=O)O1,,"inconclusive: 10 µM [falling, full curve]"
O=C(c1ccc(CS(=O)(=O)c2ccc(Br)cc2)o1)N1CCC2(CC1)OCCO2,inconclusive: 8.27%,
CC[C@H](CO)NC(=O)[C@@H]1C=C2c3cccc4c3c(cn4C)C[C@@H]2N(C)C1,inactive: 1.75%,
c1ccc(C2CC3CC(c4ccco4)N2O3)cc1 (configuration not stated),inactive: -5.39% [at 7.6 µM],
N[C@@H]1CCc2cc(O)c(O)cc2C1,inactive: 2.01%,
C[C@H](c1ccccc1)N1CCN([C@@H](C)c2ccccc2)CC1,inactive: 4.49% [at 7.6 µM],
O=c1[nH]c(=O)n(CCC2=CCCCC2)c(O)c1C=NC1CCN(Cc2ccccc2)CC1,,"inconclusive: 5.01 µM [rising, partial curve]"
O=S(=O)(c1ccc(Cl)cc1)N1CN2CCN(C2)C1,inconclusive: -0.513%,
COc1cccc(-c2nc(CS(=O)CC(=O)N3CCC4(CC3)OCCO4)c(C)o2)c1 (configuration not stated),inconclusive: 8.51%,
O=C(CN1C2CCC1CC(O)(c1cccnc1)C2)Nc1ccc2c(c1)OCO2 (configuration not stated),inactive: -10.3%,
O=C(NC1(C(F)(F)F)Oc2ccc(Cl)cc2O1)N1CCC2(CC1)OCCO2 (configuration not stated),inconclusive: -14.5%,
Fc1ccc(C(OCCN2CCN(CCCc3ccccc3)CC2)c2ccc(F)cc2)cc1,inconclusive: -23.2%,
CC(C)[C@@]1(NC(=O)[C@@H]2C[C@H]3c4cccc5[nH]cc(c45)C[C@@H]3N(C)C2)O[C@]2(O)[C@H]3CCCN3C(=O)CN2C1=O,inactive: -7.62% [at 17.1 µM],
CCOCN(C(=O)CCl)c1c(C)cccc1CC,,"inconclusive: 15.8 µM [falling, partial curve]"

SMILES,"activity change, negative = inhibition",Potency
COc1ccccc1-n1c(O)c(C=NCc2ccc3c(c2)OCO3)c(=O)[nH]c1=O,inconclusive: -1.18%,
O=[N+]([O-])c1cc(Cl)c(Cl)c(Cl)c1,inactive: -19.1%,
c1cc2cc(c1)C[n+]1ccc(c3ccccc31)NCc1ccc(cc1)CNc1cc[n+](c3ccccc13)C2,inactive: -22.9%,
O/N=C1\CCC2CN(C3CCCCC3)CC2C1 (configuration not stated),inactive: -4.03%,
C=C(C)CN1CC[C@@]23c4c5ccc(O)c4O[C@H]2c2[nH]c4ccccc4c2C[C@]3(O)[C@@H]1C5,,"inconclusive: 12.6 µM [falling, partial curve, poor fit]"
CC(=O)c1ccccc1NC(=O)C1C2CCC(O2)C1C(=O)O (configuration not stated),,"inconclusive: 25.1 µM [rising, single point]"
CN1CCN(c2ccc([N+](=O)[O-])c3[nH]o[n+](=O)c23)CC1,,"inconclusive: 3.98 µM [rising, single point]"
COc1ccc2c(c1OC)CN1CCc3cc4c(cc3[C@H]1C2)OCO4,inactive: 3.48% [at 17.1 µM],
C=CCOCC1CO1 (configuration not stated),inactive: -8.63%,
CCCCn1c(O)c(C(C)=NCCCN(C)C)c(=O)[nH]c1=O,inconclusive: -1.66%,
CC1=NN(c2ccccc2)C(=O)[C@@H]1N=Nc1ccc([As](=O)(O)O)c(O)c1,inconclusive: -27.5% [at 7.6 µM],
O=C1OCCN1P(=O)(c1ccccc1)c1ccccc1,inactive: -3.35%,
O=[As](O)(O)c1ccc(N=Nc2ccc(O)cc2)cc1,inactive: -0.309% [at 7.6 µM],
CC(C)(C)n1c(O)c(C=Nc2ccc3c(c2)CCC3)c(=O)[nH]c1=O,inconclusive: 8.37%,
COc1ccc(N=C(C)c2c(O)n(C3CCCCC3)c(=O)[nH]c2=O)c(OC)c1,inconclusive: 43.8%,
COc1cc2c(cc1OC)[C@H](C)NCC2,,"inconclusive: 31.6 µM [rising, single point]"
CC1(C)N(O)C(c2ccc(C(=O)O)cc2)=[N+]([O-])C1(C)C,inconclusive: 11.1%,
COC(=O)N(c1ccc(OC)cc1)P1(=S)OCCC(C)O1 (configuration not stated),inconclusive: 13.8%,
COc1ccc(-c2cc(C(F)(F)F)n3nc(C(=O)N4CCC5(CC4)OCCO5)cc3n2)cc1OC,inactive: 9.64%,
NC[C@@H](CC(=O)O)c1ccc(Cl)cc1,inactive,
CN(C)[C@@H]1C(=O)C(C(N)=O)=C(O)[C@]2(O)C(=O)C3=C(O)c4c(O)cccc4[C@@](C)(O)[C@@H]3C[C@@H]12,inconclusive: -14.2%,
